# Assay results: PMC6919601, “Identification of Plasmodium dipeptidyl aminopeptidase allosteric inhibitors by high throughput screening” (PLoS ONE, 2019)
# Several values for one entry are separate records, joined by “and”; a condition that tells them apart may be missing. Equal values may be shown once. Hit rate of the full screen: of about 110,000 compounds, about 230 (0.21%) showed an effect of 50% or more. The list shows a part of the results.
# Target: DPAP1 (Plasmodium falciparum, UniProt Q8IIJ9)
# Sequence (Q8IIJ9 whole entry, looked up): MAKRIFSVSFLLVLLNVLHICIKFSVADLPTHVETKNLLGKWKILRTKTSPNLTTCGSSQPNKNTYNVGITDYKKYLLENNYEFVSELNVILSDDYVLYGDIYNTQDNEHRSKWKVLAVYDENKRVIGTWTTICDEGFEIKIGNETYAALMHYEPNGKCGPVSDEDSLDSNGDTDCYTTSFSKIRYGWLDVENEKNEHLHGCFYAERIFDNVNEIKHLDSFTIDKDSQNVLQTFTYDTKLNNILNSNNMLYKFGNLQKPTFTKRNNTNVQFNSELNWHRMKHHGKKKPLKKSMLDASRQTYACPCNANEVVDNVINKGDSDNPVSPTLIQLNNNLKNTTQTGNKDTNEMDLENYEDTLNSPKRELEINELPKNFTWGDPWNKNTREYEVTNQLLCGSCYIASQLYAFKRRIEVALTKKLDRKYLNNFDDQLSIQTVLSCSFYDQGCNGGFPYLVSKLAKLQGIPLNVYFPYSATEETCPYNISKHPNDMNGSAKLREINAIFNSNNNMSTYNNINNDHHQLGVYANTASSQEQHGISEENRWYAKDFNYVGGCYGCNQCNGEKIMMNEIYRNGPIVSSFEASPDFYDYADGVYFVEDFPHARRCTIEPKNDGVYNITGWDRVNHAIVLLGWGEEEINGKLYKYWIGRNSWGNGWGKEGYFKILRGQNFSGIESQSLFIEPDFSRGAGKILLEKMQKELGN
# Assay: primary screen, percent inhibition; read by cleavage of a fluorogenic dipeptide substrate; higher = more effect of the substance
# Parameters: species or system P. falciparum D10 trophozoite lysates; single well
# 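Note: 30 min substrate incubation versus DMSO and 10 µM JCP410 controls.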
row,SMILES,% Inhibition @ 10 uM
1,CC1CCCN(C(=O)Cn2ncc3c(=O)oc4ccccc4c32)C1 (stereo not shown),-2.83%
2,CCOC(=O)c1ccc(NC(=O)c2cccnc2)cc1,1.13%
3,Cc1cc(C(F)(F)F)c(C#N)c(SCC(N)=O)n1,18.9%
4,O=C(Nc1ccc([N+](=O)[O-])cc1)c1ccc(Cl)cc1,-3.66%
5,NC(=O)C1CCN(Cc2c(F)cccc2Cl)CC1,-3.8%
6,CCc1cc2c(cc3c(=O)n(CC(=O)NC4CCCC(C)C4C)nc(CC)n32)s1 (stereo not shown),-1.7%
7,Cc1ccc(C(=O)NC=C(C#N)C#N)cc1,-8.51%
8,CCOC(=O)c1c(S(=O)(=O)NCCCc2ccccc2)c(C)n(C)c1C,-3.94%
9,COc1cc(/C=C/C(=O)N2CCOCC2)ccc1OCc1ccccc1,3.54%
10,CC1=CC2=NC(=O)/C(=C\c3ccc(-c4ccccc4)o3)C(=N)N2O1,-1.43%
11,COc1ncnc2c1sc1nc3c(cc12)COC(C)(C)C3,1.01%
12,N=C1/C(=C/c2ccc(O)cc2)C(=O)N=C2SC(C3CCCCC3)=NN12,3.43%
13,CCCCCCc1ccc(C(=O)Nc2nnc(CC)s2)cc1,-0.615%
14,Cc1ccc(NC(=O)c2cccc(C(=O)Nc3ccc(C)c(Cl)c3)c2)cc1Cl,3.47%
15,CCCc1n(CC(O)COc2cccc(C)c2)c2ccccc2[n+]1C (stereo not shown),-2.87%
16,CN1C(=O)NC(=O)/C(=C/c2ccc(-c3ccc(C(=O)O)cc3)o2)C1=O,7.67% and 2.94%
17,C=CCSc1nc2c(c(=O)n(C)c(=O)n2C)n1Cc1ccccc1,-3.69%
18,COc1cc(NC2=CC(=O)CC(C)(C)C2)cc(OC)c1OC,-1.37%
19,CCN1CCN(C(=O)C(C)n2ncn3cccc3c2=O)CC1 (stereo not shown),-0.698%
20,CC(NC(=O)CCc1c[nH]c2ccccc12)c1ccccc1 (stereo not shown),-3.37%
21,O=C(Cc1coc2ccc3ccccc3c12)NC1CCCCC1,3.66%
22,CN1CN(C)c2cccc3cccc1c23,-0.941%
23,O=[N+]([O-])c1ccc(N2CCCC2)cc1Sc1cccc2cccnc12,-6.88%

row,SMILES,% Inhibition @ 10 uM
1,Fc1ccccc1OCCCCCN1CCOCC1,3%
2,Cc1ccc(CN2CCCN(C)CC2)c(C)c1,-1.93%
3,NC(=O)CSc1cn(CC(=O)N2CCOCC2)c2ccccc12,-2.26%
4,Cc1cccc(-n2c(SCc3cc(=O)n4cc(Br)ccc4n3)nc3nncc-3c2O)c1,4.47%
5,Cc1cc(N2C(=O)CC(C(C)c3ccccc3)C2=O)no1 (stereo not shown),2.1%
6,CC(=C\c1ccccc1)/C=C1/SC(=O)NC1=O,1.37%
7,Cc1ccccc1Cn1c(C(=O)O)c(CNCC2CCCO2)c2ccccc21 (stereo not shown),0.277%
8,CN(C)CCN1CCc2ccccc21,1.7%
9,CCN(Cc1ccccc1)C(=O)CSc1nc2ccncc2[nH]1,8.62%
10,COc1ccc(O)c(-c2cc(-c3ccc(Cl)cc3)[nH]n2)c1,2.78%
11,Cc1ccc(NC(=O)C2CCC(N3C(=O)C4C5C=CC(C6CC56)C4C3=O)CC2)cc1 (stereo not shown),-3.04%
12,Cc1nc2sccc2c(=O)n1-c1ccccc1Cl,-4.72%
13,Oc1nc(S)nc(O)c1-c1ccccc1,-0.771%
14,CN1CCc2nc3ccccc3c(C(=O)O)c2C1,-1.99%
15,CC1CCN(c2nc3ccc(C(=O)NCCCN4CCCCC4C)cc3s2)CC1 (stereo not shown),1.03%
16,CCOC(=O)N1CCC(NC(=O)C2=C(C)C(=O)OC23CCCCC3)CC1,-0.138%
17,COCCNC(=O)c1ccc2c(c1)ncn2-c1ccc(C)c(Cl)c1,-1.99%
18,Cn1nc(C(=O)N2CCN(C(=O)c3ccco3)CC2)c2c1-c1ccccc1SC2,12%
19,Cc1cccc2c1NC(=O)/C2=C1\SC(Nc2ccc(F)cc2)=NC1=O,-3.18%
20,C=CCSc1nc(-c2cccs2)ccc1C#N,-4.41%
21,CC(C)(C)N1COc2ccc3c(-c4ccccc4)cc(=O)oc3c2C1,14.6%
22,Cc1cc(C)nc(SCc2ccc(Cl)cc2)n1,1.13%
23,Cc1cc(C)nc(SCCn2c(N3CCC(C)CC3)nc3c2c(=O)n(C)c(=O)n3C)n1,2.41%

row,SMILES,% Inhibition @ 10 uM
1,CN1CCN(Cc2nc(N)nc(Nc3ccccc3)n2)CC1,-3.23%
2,COc1cccc(OC)c1C(=O)N1CCN(C(=O)c2ccco2)CC1,-0.641%
3,CCOC(=O)c1cc(C)n(CCc2ccccc2)c1C,-5.03%
4,O=C(O)C1Cc2c([nH]c3ccccc23)C(c2ccc(C(F)(F)F)cc2)N1 (stereo not shown),-2.21%
5,O=c1/c(=C/C=C/c2ccccc2)sc2nc(-c3cccnc3)nn12,0.222%
6,O=C(Cn1c2c(c(-c3ccccc3)cc1=O)CCCC2)N1CCCC1,-3.94%
7,Cc1ccc(S(=O)(=O)CCC(=O)O)cc1,-1.77%
8,N#CCNC(=O)[C@H](CSCc1ccccc1)NC(=O)c1cccc(N)c1,-5.21%
9,Cc1ccc(C)c(OCC(O)CN2CCN(C)CC2)c1 (stereo not shown),10.9%
10,Cc1ccc(NS(=O)(=O)c2cc(Cl)ccc2Cl)c(C)c1,0.135%
11,CC1=C(C(N)=S)C(c2ccccc2F)C2=C(O)c3ccccc3C2=N1 (stereo not shown),-3.77%
12,CC(=O)c1c(C)nc(S)c(C#N)c1-c1ccccc1,39.2%
13,CCCNS(=O)(=O)c1cc(C(C)C)c(OC)cc1C,0.895%
14,CCCCN(C)c1ncnc2onc(-c3ccc(Cl)cc3)c12,-7.65%
15,OCCN1CCN(CCN2CCCC(c3ccc(F)cc3)c3ccc(F)cc32)CC1 (stereo not shown),-7.31%
16,CC(C)(C)Sc1cc(C(=O)O)sc1C(=O)O,-4.01%
17,CC1CCN(S(=O)(=O)c2ccc3nc(O)cc(C(=O)NCCc4ccccc4)c3c2)CC1,2.79%
18,COc1cccc2c1cc1c(=O)n(CC(=O)N3CCN(Cc4ccccc4)CC3)nc(C)n12,-1.7%
19,Cc1[nH]nc2c1C(C1CC=CCC1)C(C#N)=C(N)O2 (stereo not shown),0.121%
20,CCCCOc1ccc(C(=O)NCc2nnc(S)n2-c2cccc(Cl)c2)cc1,36.7%
21,CCN(C(=O)c1cc2c(=O)n3cccc(C)c3nc2n1C)c1cccc(C)c1,13.6%
